# The supplement of paper PMC3334620
# Over roughly 33,000 sequences, “E-score (-0.5 to 0.5)” has its median near -0.054; the highest 2% begin near 0.35. This is one part of the list.
# Target: T1, Stb5 (UniProt P38699)
# T1 sequence: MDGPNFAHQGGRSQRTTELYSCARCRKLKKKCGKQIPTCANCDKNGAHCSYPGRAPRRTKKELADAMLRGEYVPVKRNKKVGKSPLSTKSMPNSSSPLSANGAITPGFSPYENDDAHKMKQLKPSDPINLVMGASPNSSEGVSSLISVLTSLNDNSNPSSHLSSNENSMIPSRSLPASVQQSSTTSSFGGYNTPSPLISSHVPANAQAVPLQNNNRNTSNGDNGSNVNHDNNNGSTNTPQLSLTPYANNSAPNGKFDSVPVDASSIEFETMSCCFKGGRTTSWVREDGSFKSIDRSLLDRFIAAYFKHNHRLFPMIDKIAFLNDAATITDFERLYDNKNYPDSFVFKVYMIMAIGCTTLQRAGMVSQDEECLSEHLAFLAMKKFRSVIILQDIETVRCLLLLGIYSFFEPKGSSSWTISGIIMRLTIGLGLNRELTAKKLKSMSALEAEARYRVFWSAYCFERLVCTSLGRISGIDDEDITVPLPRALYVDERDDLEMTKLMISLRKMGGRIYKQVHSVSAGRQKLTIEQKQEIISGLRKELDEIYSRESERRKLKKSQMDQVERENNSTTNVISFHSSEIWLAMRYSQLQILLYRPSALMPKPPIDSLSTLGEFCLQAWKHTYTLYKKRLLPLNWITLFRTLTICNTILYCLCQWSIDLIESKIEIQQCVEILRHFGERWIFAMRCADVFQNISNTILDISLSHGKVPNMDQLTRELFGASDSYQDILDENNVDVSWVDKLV
# Experiment: PBM E-score (8-mer binding enrichment) (E-score (-0.5 to 0.5)); higher = stronger / more preferred TF binding; most listed sequences are background and not binding sites
# Settings: protein concentration: 200 nM; construct: GST-full length
# Summary of the method: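 GST-tagged yeast TFs (full-length or DNA-binding domain) were made by PURExpress in vitro transcription/translation and applied at about 100-200 nM to universal all-10-mer Agilent arrays. The arrays were made double-stranded by primer extension, on fresh or once-stripped slides. Bound protein was detected with fluorescent anti-GST, and scans were normalised with masliner. Each ungapped eight-base word, pooled with its reverse complement, received an E-score (modified Wilcoxon-Mann-Whitney statistic) from the Universal PBM Analysis Suite.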
row,Sequence,PBM E-score
1,CATACGCC,-0.00797
2,ACCACGCA,-0.177
3,CTAGTGTC,-0.0568
4,AATTAATT,-0.186
5,AGGACGTG,-0.187
6,GTTCTCGA,-0.21
7,AGGCCCCC,-0.0933
8,TAAGTCGA,-0.107
9,GTTCGATA,-0.036
10,AATCCCCG,0.452
11,ATCCGGGC,0.188
12,AAAGGTCC,0.254
13,ACCTTGGA,-0.0871
14,AGAGAGTG,-0.259
15,ACTTATGA,-0.0404
16,GCTTTTTA,-0.0386
17,CTGGATAA,-0.0572
18,ACGTGAGA,-0.0529
19,TGGGTTAA,-0.0489
20,ACGTTACC,0.13
21,GTGTCACA,0.00199
22,CCAGGGAA,-0.356

row,Sequence,PBM E-score
1,CGATGGGA,0.0551
2,ACACCTGG,-0.105
3,GAAGGTCC,0.124
4,ATGGTTCG,-0.0398
5,GGTCAATA,-0.0135
6,ACGTACAG,-0.0609
7,ACGACGCG,-0.0646
8,GCAGCAGC,-0.179
9,GCACATCA,-0.141
10,AGGAGATG,-0.164
11,TAGACTAA,0.0613
12,CACTGTGG,-0.209
13,GGGCCAAA,0.0379
14,CGTTGATA,0.212
15,GTTCCAGA,-0.162
16,ATTCAATC,0.0338
17,AGGATTGG,-0.127
18,CCCAACCG,-0.182
19,CACAAGTA,0.00419
20,AGAAGCAA,-0.184
21,AACCGCTC,0.119
22,AGAGATCG,0.0605

row,Sequence,PBM E-score
1,CATGTAAG,-0.0656
2,CTAAGGCC,0.262
3,AATCCACT,-0.228
4,GCCTCGCA,-0.0909
5,ACGTGTCT,-0.194
6,CCGAGGAA,0.0845
7,CTGCCAGC,-0.181
8,CCAGAGTA,-0.0529
9,ACTGCAAG,-0.214
10,TCTTAGAA,0.0597
11,CACTTATA,0.209
12,GGAGAGTA,-0.0463
13,ACTTTTGA,-0.0687
14,ACCATCGC,-0.0968
15,ACAATACG,0.0226
16,ACACACTG,-0.182
17,CGACTTCA,-0.0336
18,AACTTTGC,-0.0649
19,CGAGTTTA,0.179
20,GTTGCTTA,-0.0867
21,AACATCCG,0.359
22,GCGTGTTA,-0.146

row,Sequence,PBM E-score
1,CCAAATTA,-0.15
2,AAACCGAA,-0.0132
3,CCCTAACG,0.091
4,CCACTTTA,-0.164
5,CTGAGGTA,-0.0444
6,ACACATAT,-0.163
7,CACTAAGG,-0.09
8,CAATGACC,0.127
9,GCGTGATA,0.0637
10,AATAGCCG,0.271
11,GCTATTGA,0.168
12,CATTGTTC,0.0384
13,AAAGTGCC,0.15
14,ACAGTGCA,-0.0527
15,CACGGATA,0.0963
16,ACTTCATA,-0.166
17,AGACAACG,0.0363
18,CGGATGAG,-0.135
19,ACGGTAGA,0.111
20,AATTATAC,0.213
